From PMC12136788 come the findings set out here.

Sequences and labels used below:
T1: UNK ZnF1-3 (human, UniProt Q9C0B0 31-174)
T1 sequence: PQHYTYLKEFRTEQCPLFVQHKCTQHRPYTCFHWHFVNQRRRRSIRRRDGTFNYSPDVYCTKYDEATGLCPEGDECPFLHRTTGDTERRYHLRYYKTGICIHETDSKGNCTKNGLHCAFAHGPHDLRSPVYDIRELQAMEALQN

B1: chr17:60770872:60770873:+_ENSG00000011028_ENST00000303375|hu_hu|hu_hu_hu_mus_True|8_48 (ssRNA)
RNA: GGGAGUUCUACAGUCCGACGAUCUCUUUAAAAAAAAAAAAAAAAAGACAAACAAUAAUAGCACAUUUCGAGAAUCAAGAACUACAAAGAAAGGGCCGCUUUGAGUUUUUGUUCACAUCGUCCUGCAACGCUGUCGCGGGACUGCAACAGAGGAUUGAGCAUCA
B2: chr7:141441981:141441982:+_ENSG00000106028_ENST00000265304|hu_mus|hu_hu_hu_mus_False|38_88 (ssRNA)
RNA: GGGAGUUCUACAGUCCGACGAUCCUCAUGUCUUACAAACUGACGAAGUACCUGUAACACAGGUCUUCGAAACAUGGCUUCUGUUUUUCUUACAACCAGUCUAAUCUGCUUUUCCUAAAGGAAAGAAAGAAAAGAGAAAAAUGACAACAGAGGAUUGAGCAUCA
B3: chr11:77336104:77336105:-_ENSG00000074201_ENST00000525064|hu_mus|hu_hu_hu_mus_False|1_78 (ssRNA)
RNA: GGGAGUUCUACAGUCCGACGAUCCUCACACAUUGCUGUGAACAUCGCCUCCAAUGCUGAUUUAUCACUGGGCACAAAUCGAAAUUCAGAAAUGGGUUCAACAUCAUCAUUGUCUUCCUCAUCUUCAUCAGAGAGAGCAGGUUCCAACAGAGGAUUGAGCAUCA
B4: chr18:52893488:52893489:-_ENSG00000196628_ENST00000354452|hu_hu|hu_hu_hu_mus_True|8_48 (ssRNA)
RNA: GGGAGUUCUACAGUCCGACGAUCUAUUUAGACCAUUUCCGCGGAGUUAUGGCAUUUACUCAGUGCUGAUAGGUGGAAAAACUACUUGAACAGGGAUUUUUUUUUUCCUUAAUACAUGCCAAGAUUGGUGUGGCUGUAAAACAGCAACAGAGGAUUGAGCAUCA
B5: chr2:48026839:48026840:+_ENSG00000116062_ENST00000540021|hu_hu|hu_hu_hu_mus_False|98_98 (ssRNA)
RNA: GGGAGUUCUACAGUCCGACGAUCAUAGUGAGCCACUAGAGUCCUAAAUCUGGAACAGUGGCGGUCAUCCGAAAACUGGCCGAUGAAAAACUUGCCCAGUGAAGUGUCCACAAAGCAAACACCAUACACACGAGUGUGACCAGACAACAGAGGAUUGAGCAUCA
B6: chr19:45035288:45035289:+_ENSMUSG00000036097_ENSMUST00000096053|mus_hu|motif|central (ssRNA)
RNA: GGGAGUUCUACAGUCCGACGAUCAUUCUCCAGGGGAAACAAAGAUCUAAAAUCAAUCCCCAUAUUGAAAAACACAGCUGCGGCAUCAGACAAUGAUGGGAUCCAUGGCCAAACUGGUGAGUCACUGAAGGUAUCAUUUCUAAUCAACAGAGGAUUGAGCAUCA
B7: chr3:33703679:33703680:+_ENSMUSG00000027677_ENSMUST00000099153|mus_hu|FALSE|FALSE (ssRNA)
RNA: GGGAGUUCUACAGUCCGACGAUCUUCUAACUGUCCUCCUCUCUCUACAAGUGUCUGGCAGAGGUAUUUUCUUGCAUUUCUGUGAGUUGGACAGUUUUCUAAUGCAAGCUCAAAAUCUUCUAUUGCUUUGUUCAAACUUCCUUUCAACAGAGGAUUGAGCAUCA
B8: chr14:66974463:66974464:+_ENSMUSG00000022044_ENSMUST00000074523|mus_hu|mus_mus_mus_hu_False|8_78 (ssRNA)
RNA: GGGAGUUCUACAGUCCGACGAUCUUGUAGGACGACUUAUUCAGGGGAUCGGCCAGGAAGCAAGAGCAGAACAAGGACACCAGCGGGAGCUCCUUCAUCUUCUCUUUGUAGGCAGCAAGGGUCAUGUUGGCUGGAAUUGGUGGCCAACAGAGGAUUGAGCAUCA
B9: chr17:65740002:65740003:+_ENSG00000130935_ENST00000581375|hu_hu|hu_hu_hu_mus_False|1_98 (ssRNA)
RNA: GGGAGUUCUACAGUCCGACGAUCAACAAAUCUUUCUCUGGAUGAAGAACAGGAAGAUUCAUAUUAAAAAAAAUAUAUAUCCAUCAAGUUAGGUGUGGUGGCCACACCUUUACUCCCAGCACUUUGGGAGGUGGAUCCUCUAUUCAACAGAGGAUUGAGCAUCA
B10: chr2:126738436:126738437:-_ENSMUSG00000027366_ENSMUST00000028844|mus_mus|FALSE|FALSE (ssRNA)
RNA: GGGAGUUCUACAGUCCGACGAUCAGGCACGGAGCAUACACUCAUGACUGAGUAACCCAUCAGUUUUGGCACCCUGAUAACUACUGGCAACUUUUCAGCAUUCUCGAAAGGCCCAGCAGCAAGUUCCACCAUGAUGCUCUCACCCAACAGAGGAUUGAGCAUCA
B11: 186295313_186296657_6180_CDS_ENSG00000047410_ENST00000367478|human|control|control (ssRNA)
RNA: GGGAGUUCUACAGUCCGACGAUCCAUCCCUGUGUCAUCUUCAUCAUCAUCAUCAUCUUCCUCAUCCUCUUCAUAAUCCUCAUGUUCUCCAUCAUUUUCAUCAUCAUCCUCUUCUUCAUCAUCACUGUCAAUUACAAUGACAUCCAACAGAGGAUUGAGCAUCA
B12: chr7:11082375:11082376:+_ENSG00000106443_ENST00000423760|hu_mus|FALSE|FALSE (ssRNA)
RNA: GGGAGUUCUACAGUCCGACGAUCGUUUUUCGUCUUUCUCGGCAUCCUUGUAAGAGGAGGAUCAAGGCAGCCGAGAUGAUAAUGCAGUUUACAGGUGUCACACAGUAAAAGAAGAUGCUGAUCAUGGUUCUUCUUACAAAUUCCCAACAGAGGAUUGAGCAUCA
B13: chr19:41288841:41288842:-_ENSMUSG00000025016_ENSMUST00000025989|mus_mus|motif|central (ssRNA)
RNA: GGGAGUUCUACAGUCCGACGAUCUAAAUCUCCAAAUGUUUAAUAAAAACAAGCAUCUUCUCCAUUUAACACUUCGCUUGCGGACUGUACAGUAGAUUGUAUUAUAGAGAGUGCACCUCUACUUUCAUACUGUAUCUUCUUUGGCAACAGAGGAUUGAGCAUCA
B14: chr4:115894766:115894767:+_ENSMUSG00000028698_ENSMUST00000030464|mus_hu|mus_mus_mus_hu_True|38_48 (ssRNA)
RNA: GGGAGUUCUACAGUCCGACGAUCUUCCACACGGAAAUGUACUUCGGGUUUUCCAACGGCCAGUACCAGUCCGGCCAAACUACCCGAUGAGGACAAGGUCCUCCUCUCCUACAGAACACAACAAAAUGCCCCCGAACUUUCAAGCAACAGAGGAUUGAGCAUCA
B15: 124787849_124787969_1977_3pUTR_ENSMUSG00000028863_ENSMUST00000154689|mouse|control|control (ssRNA)
RNA: GGGAGUUCUACAGUCCGACGAUCCAUCCAAGAAAAUGGGAGUCUGUUUAAGAACAAAAUGAAAGGCUUUUGCACAUCUGACAGGGUGGUUCUGGUGAAGAGGCCAGCCAUCUCCGCCAACAGCAUGGACCACAACGGCCCAAGCAACAGAGGAUUGAGCAUCA
B16: chr1:35579700:35579701:+_ENSG00000197056_ENST00000373330|hu_hu|motif|central (ssRNA)
RNA: GGGAGUUCUACAGUCCGACGAUCGAACAAAGAACUGAGAGUUUUUAGAGCACUUCGGAGUUCUUUUACUUCUUUACAAAACCGGAUUAUUGAUAAAUCCAAAAAGUGUGCAUAACAAUGUAUGUAUAAAGCUCUUGGUUCUUCCAACAGAGGAUUGAGCAUCA
B17: chr3:35977374:35977375:+_ENSMUSG00000027710_ENSMUST00000011492|mus_mus|motif|central (ssRNA)
RNA: GGGAGUUCUACAGUCCGACGAUCCACAGGCACUCUGGUAUUUUCAAAAUGGACCUCACAUGUGUUGGAGCCUCGAAUGCCGGAUUUAUCUUCAGGUUUCCCAUUAGUGAUUCCGCCGAAGUCUCUUUCUACUAUGAAUGCGGUCAACAGAGGAUUGAGCAUCA
B18: chr2:114714976:114714977:+_ENSG00000115091_ENST00000536059|hu_hu|motif|central (ssRNA)
RNA: GGGAGUUCUACAGUCCGACGAUCAUAACUAUGAAGCCAAUUUUACGACAUGACUCCAAACACUGGAUUGUGACGACAAAUGCGGGGUCCAAUUUCUUCAUAAUCCUUUUUGGUGUGGCAUACUUGGUAGAACUCAGGCGUGGACAACAGAGGAUUGAGCAUCA
B19: chr17:65930154:65930155:-_ENSMUSG00000024091_ENSMUST00000024897|mus_mus|motif|central (ssRNA)
RNA: GGGAGUUCUACAGUCCGACGAUCGGUGACAUUAUCUCUGAAGGACACGGCUGAGGUGGAUCCAGGUUUAUCCGAAUGUGCGGCCUUUCUGAGCCUUAGGCCUUCAUCUCUCAGGUGUCGGUUUUCUUCUGAGAGCUUCAUCAUCAACAGAGGAUUGAGCAUCA
B20: chr12:72179577:72179578:+_ENSG00000080371_ENST00000261263|hu_hu|motif|central (ssRNA)
RNA: GGGAGUUCUACAGUCCGACGAUCGUUUAGCACUUAAGGUCUCUGCAGUGUUAUAAACGUAAUUUAAAAUACUGUUAAUUCGGUAAUUCCAUUGGUAAAAUAAUGUGACUUGGAAUAUGGCAGUCUUCAUGUUGAGGGCAAUGACAACAGAGGAUUGAGCAUCA
B21: 15614301_15614421_1454_CDS_ENSG00000151779_ENST00000281513|human|control|control (ssRNA)
RNA: GGGAGUUCUACAGUCCGACGAUCCACCAAGUAAAGGCCCUGUUUUAUAUAACCAAAGUAGCGAGCCUUGGCAGAUAUUUCAUAAUCAGAAUCAGAAUCCUCUUCUCCUUCAUCUUCUUCUCCAGCUCUAGUCUCCAAACGAGACAACAGAGGAUUGAGCAUCA
B22: 11073862_11073982_252_CDS_ENSG00000120948_ENST00000240185|human|control|control (ssRNA)
RNA: GGGAGUUCUACAGUCCGACGAUCAGCAUCUGGGGCAUGCAGAAUUCCUUCUACCAGCCGGACACCUCUCAUACACUGAGACACUGGAUUCCUGUAGCGAAGCCCACACGCCCCUGGAAACUGGGCUGUAACCGUGGAGAGCAGCAACAGAGGAUUGAGCAUCA

The list shows a part of the results.

In this test the target is T1, UNK ZnF1-3. Kind of test: nsRBNS (natural sequence RNA bind-n-seq); RBNS binding buffer (assumed for nsRBNS): 25 mM Tris pH 7.5, 150 mM KCl, 3 mM MgCl2, 0.01% Triton X-100, 500 ug/ml BSA, 20 U/ml SUPERase-In, 4 C; UNK is unkempt and MSI1 is Musashi-1; names of the RNAs are library labels; protein concentration not given here; high values mean tight binding.
For B1, the binding signal is 2.82 enrichment R.
For B2, the binding signal came out at 0.707 enrichment R.
In the case of B3, the binding signal turned out to be 0.913 enrichment R.
In the case of B4, the binding signal stood at 0.801 enrichment R.
As to B5, the binding signal was determined as 1.29 enrichment R.
As for B6, the figure is 1.18 enrichment R.
Molecule B7 came in with a binding signal of 0.42 enrichment R.
With B8 the figure was 2.25 enrichment R; with B9, 1.62 enrichment R.
As to B10, the binding signal turned out to be 1.03 enrichment R.
For the molecule B11, the binding signal is 0.564 enrichment R.
Take B12: the binding signal was 0.797 enrichment R.
As for B13, the figure is 0.915 enrichment R; as for B14, 0.79 enrichment R; as for B15, 1.34 enrichment R.
In turn, B16 had a binding signal of 1.03 enrichment R.
B17 returned a binding signal of 0.775 enrichment R.
With B18 the figure was 1.1 enrichment R.
The molecule B19 returned a binding signal of 0.605 enrichment R.
As for B20, the figure is 1.43 enrichment R; as for B21, 1.04 enrichment R; as for B22, 1.2 enrichment R.
